Measured values taken from the supplement of paper PMC10600219.
Structures can show the parent of a compound that is named as a salt. The full ranking holds about 2,800 compounds; the median of “cell viability relative to vehicle” is about 1.1, and the lowest 2% start at about 0.19. Some of the results follow.

What follows are compounds tested on NCI-H2228 parental (assay: cell viability relative to vehicle (fraction of vehicle); NCI-H2228 is an ALK-positive lung cancer line and DTP means drug-tolerant persister; higher = less growth inhibition). Conditions: 100 nM; treatment time 6 days.
Summary of the method: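 Values give cell viability as a fraction of vehicle-treated cells. Parental and drug-tolerant persister NCI-H2228 cells (persisters made with 1000 nM of a targeted drug for 13 days) were exposed in 384-well plates to the 3114-agent TargetMol anti-cancer compound library at 100 nM, with DMSO as vehicle. ATP was then read after 6 days by the CellTiter-Glo 3D Cell Viability Assay.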
For CC(C)C[C@H](NC(=O)CNC(=O)c1cc(Cl)ccc1Cl)B(O)O [Ixazomib], the cell viability was 0.121.
For N#Cc1ccc2ncnc(NC3CCC(N4CCOCC4)CC3)c2c1 (stereo not drawn), the cell viability was 1.16.
In the case of O=C(O[C@@H]1Cc2c(O)cc(O)cc2O[C@@H]1c1cc(O)c(O)c(O)c1)c1cc(O)c(O)c(O)c1 [(-)-Epigallocatechin Gallate], the cell viability is reported as 0.93.
C[C@@H]1O[C@@H](O[C@@H]2[C@@H](O)[C@H](OCCc3ccc(O)c(O)c3)O[C@H](CO)[C@H]2OC(=O)/C=C/c2ccc(O)c(O)c2)[C@H](O)[C@H](O)[C@H]1O [Verbascoside] was tested, and the cell viability was 1.03.
Compound COC(=O)c1ccc2c(c1)NC(=O)/C2=C(\Nc1ccc(N(C)C(=O)CN2CCN(C)CC2)cc1)c1ccccc1 [Nintedanib] has a cell viability of 0.958.
CCS(=O)(=O)c1ccc2oc(-c3ccc4ccccc4c3)nc2c1 [Ezutromid] showed a cell viability of 1.05.
COc1ccc(/C=C\c2cc(OC)c(OC)c(OC)c2)cc1OP(=O)(O)O [Fosbretabulin Disodium] was tested, and the cell viability was 0.329.
O=C(NCCS(=O)(=O)c1ccc(C(F)(F)F)cn1)c1ccc(Cl)cc1 gave a cell viability of 1.07.
CC(C)CC(=O)Nc1n[nH]c2c1CN(C(=O)C1CCN(C)CC1)C2(C)C showed a cell viability of 0.977.
COc1ccc(C=O)c(O)c1 [4-Methoxysalicylaldehyde] showed a cell viability of 0.973.
Work on Nc1nc(F)nc2c1ncn2[C@@H]1O[C@H](CO)[C@@H](O)[C@@H]1O [Fludarabine] yielded a cell viability of 1.12.
In the case of CC(=O)c1cnc2ccc(-c3cc(Cl)c(O)c(Cl)c3)nc2c1N[C@H]1CC[C@H](CN(C)C)CC1, the cell viability is reported as 0.657.
CC(=O)N1c2ccc(-c3ccc(C(=O)O)cc3)cc2[C@H](Nc2ccc(Cl)cc2)C[C@@H]1C was tested, and the cell viability was 0.864.
Compound O=C1CN2Cc3c(ccc(Cl)c3Cl)N=C2N1 [Anagrelide] has a cell viability of 1.06.
COCCN1CCN(Cc2ccc(-c3n[nH]c4c3C(=O)c3c(NC(=O)NN5CCOCC5)cccc3-4)cc2)CC1 gave a cell viability of 0.253.
CN(C)Cc1c(C(=O)NCCOc2ccc(C(=O)NO)cc2)oc2ccccc12 showed a cell viability of 0.758.
Compound NCCCNc1ccc(Nc2nccc(Nc3cc(C4CC4)[nH]n3)n2)cc1 has a cell viability of 0.735.
Compound CN1CC[C@H](c2c(O)cc(O)c3c(=O)cc(-c4ccccc4Cl)oc23)[C@H](O)C1 [Flavopiridol hydrochloride] has a cell viability of 0.497.
Work on COc1ccc(-c2cc(=O)c3c(O)cc(O)cc3o2)cc1O [Diosmetin] yielded a cell viability of 1.26.
Nc1nc(Cl)nc2c1ncn2[C@@H]1O[C@H](CO)[C@@H](O)[C@@H]1F [Clofarabine] showed a cell viability of 0.151.
Cc1ccc(Nc2nnc(Cc3ccncc3)c3ccccc23)cc1Br showed a cell viability of 0.942.
Work on CCCCCCCCCCCCCCOc1ccc(C(=O)O)o1 yielded a cell viability of 1.05.
Compound C[C@@H](N)[C@H]1CC[C@H](C(=O)Nc2ccncc2)CC1 has a cell viability of 1.3.
c1cnc2cc3c(cc2n1)[C@@H]1CNC[C@H]3C1 [Varenicline Tartrate] showed a cell viability of 1.19.
In the case of NNC(=O)c1ccccn1 [2-Picolinyl hydrazide], the cell viability is reported as 0.879.
Work on CCCCCN(CCCOC)C(=O)C(CCC(=O)O)NC(=O)c1ccc(Cl)c(Cl)c1 (stereo not drawn) [Loxiglumide] yielded a cell viability of 0.97.
O=c1cc(-c2ccc(O)cc2)oc2cc(O)cc(O)c12 [Apigenin] gave a cell viability of 1.22.
Compound CO[C@H]1/C=C/O[C@@]2(C)Oc3c(C)c(O)c4c(c3C2=O)C2=NC3(CCN(CC(C)C)CC3)NC2=C(NC(=O)/C(C)=C\C=C\[C@H](C)[C@H](O)[C@@H](C)[C@@H](O)[C@@H](C)[C@H](OC(C)=O)[C@@H]1C)C4=O [Rifabutin] has a cell viability of 0.96.
CNc1nc(Nc2cnn([C@H]3CCN(C4COC4)C[C@@H]3F)c2Cl)ncc1C(F)(F)F gave a cell viability of 1.06.
Compound NCCC[C@H](N)C(=O)O [L-Ornithine] has a cell viability of 1.12.
Work on COc1cc(C(N)=O)ccc1NC(=O)[C@@H]1N[C@@H](CC(C)(C)C)[C@@]2(C(=O)Nc3cc(Cl)ccc32)[C@H]1c1cccc(Cl)c1F yielded a cell viability of 1.2.
CC(C)n1nc(-c2cc3cc(O)ccc3[nH]2)c2c(N)ncnc21 [Torkinib] was tested, and the cell viability was 0.747.
Work on Cc1ccc(S(=O)(=O)Nc2cc(C(F)(F)F)ccc2C(=O)Nc2nc(-c3ccccc3)cs2)cc1 yielded a cell viability of 0.899.
Compound CCOC(=O)c1cnn(-c2ccccc2)c1NC(=O)c1cc2nc(-c3ccco3)cc(C(F)(F)Cl)n2n1 [Mycro-3] has a cell viability of 1.04.
CC(=O)N[C@H]1CSSC[C@@H](C(N)=O)NC(=O)[C@H](C(C)C)NC(=O)[C@H](C)NC(=O)[C@H](Cc2c[nH]cn2)NC1=O [Exherin trifluoroacetate] showed a cell viability of 1.15.
Work on O=C(CCCCCCNC(=O)c1cnc(N(c2ccccc2)c2ccccc2)nc1)NO [Rocilinostat] yielded a cell viability of 1.01.
O=c1ncccn1[C@@H]1O[C@H](CO)[C@@H](O)[C@H]1O [Zebularine] was tested, and the cell viability was 1.33.
COc1cccc(CNC(=O)Nc2nc(-c3ccncc3)cs2)c1 was tested, and the cell viability was 1.04.
In the case of CCOC(=O)c1ccc(OC(=O)CCCCCNC(=N)N)cc1 [Gabexate mesylate], the cell viability is reported as 1.15.
With O=c1[nH]cnc2c1ncn2[C@H]1C[C@H](O)[C@@H](CO)O1 [2'-Deoxyinosine] the cell viability was 0.912.
With Cc1cc(C#N)c(N)s1 [2-Amino-5-methyl-3-thiophenecarbonitrile] the cell viability was 0.811.
C[C@@H]1CN(C(=O)c2ccc(NC(=O)c3cc(O[C@H](C)c4c(Cl)ccc(F)c4Cl)c(N)nn3)cc2)C[C@H](C)N1 [Ensartinib] was tested, and the cell viability was 0.653.
COc1ccc(C(=O)CC2(O)C(=O)Nc3c(Cl)ccc(Cl)c32)cc1 (stereo not drawn) showed a cell viability of 1.12.
In the case of CC(C)(C)Cn1c(N)nc2ccc(-c3[nH]c(C(C)(C)C)nc3-c3ccc(F)cc3)nc21 [Ralimetinib Mesylate], the cell viability is reported as 1.07.
C/C=C1/[C@H](O[C@@H]2O[C@H](CO)[C@@H](O)[C@H](O)[C@H]2O)OC=C(C(=O)OC)[C@H]1CC(=O)OCCc1ccc(O)c(O)c1 [Oleuropein] showed a cell viability of 1.07.
Cc1cc(=O)oc2cc(O)ccc12 [4-Methylumbelliferone] showed a cell viability of 1.31.
For COc1cccc(-c2ccc(NC(=O)C3=C(C(=O)O)CCC3)c(F)c2)c1 [Vidofludimus], the cell viability was 1.04.
In the case of CC(C)C[C@H](NC(=O)[C@@H](COC(C)(C)C)NC(=O)[C@H](Cc1ccc(O)cc1)NC(=O)[C@H](CO)NC(=O)[C@H](Cc1c[nH]c2ccccc12)NC(=O)[C@H](Cc1cnc[nH]1)NC(=O)[C@@H]1CCC(=O)N1)C(=O)N[C@@H](CCCNC(=N)N)C(=O)N1CCC[C@H]1C(=O)NNC(N)=O [Goserelin acetate], the cell viability is reported as 1.07.
